According to the supplement of paper PMC3334620:
The full ranking holds about 33,000 sequences; the median of “E-score (-0.5 to 0.5)” is about -0.01, and the highest 2% start at about 0.26. The list shows a part of the results.

target: Ste12 (UniProt P13574); assay: PBM E-score (8-mer binding enrichment) (E-score (-0.5 to 0.5)); higher = stronger / more preferred TF binding; most listed sequences are background and not binding sites; conditions: protein concentration: 200 nM; construct: GST-DNA-binding domain
Description: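 Universal 'all 10-mer' protein binding microarrays (Agilent AMADID 015681) probed with GST-tagged S. cerevisiae TFs (full-length or DBD) made by in vitro transcription/translation (PURExpress), about 100-200 nM. Bound TF was detected with fluorescent anti-GST. Each ungapped 8-mer (which stands for itself and its reverse complement) is scored by the PBM enrichment score (E-score), a modified Wilcoxon-Mann-Whitney statistic from -0.5 to +0.5, computed with the Universal PBM Analysis Suite. Scale: above 0.35 generally sequence-specific binding.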

Row | Sequence | PBM E-score
1 | ATCTGTAC | 0.0717
2 | CATGAAAC | 0.484
3 | TACGTCCA | -0.111
4 | AAATAACT | 0.201
5 | CATTAAGG | 0.0285
6 | CGACACCG | 0.0188
7 | AGCTATGG | 0.0157
8 | ATACCATA | -0.0694
9 | ACGCCCGT | 0.132
10 | CGTTGAGC | -0.244
11 | TGGACGAA | 0.0406
12 | CTGGTGCC | -0.174
13 | AGAGTAGG | -0.12
14 | ACTCTTGC | -0.101
15 | ATACCCGA | 0.112
16 | GGGGAACA | -0.102
17 | CGCTTCAC | 0.0273
18 | CTCCCGCC | -0.0719
19 | AGCAGAGG | -0.134
20 | ACGTTCTC | 0.0364
21 | CGACCCAA | 0.138
22 | GAATTGTC | 0.00878
23 | ATCTGAGG | 0.0822
24 | CCTCGCAA | 0.18
25 | GCGCGCCA | 0.1

Row | Sequence | PBM E-score
26 | ACATCTAA | 0.114
27 | AACCCTCG | -0.0591
28 | TTATTCAA | 0.156
29 | AGGGGCGA | 0.165
30 | GTGGTTTA | 0.135
31 | CAGAGCGA | -0.0734
32 | AGCAGTAA | 0.0857
33 | GCATACGC | -0.153
34 | AGTCAAAT | 0.089
35 | ATGATAGG | -0.124
36 | AGGGTCCA | -0.13
37 | ACGGTCAG | -0.0237
38 | ACTCTATG | -0.0969
39 | CCCGTAAC | 0.113
40 | TGAGGCAA | 0.111
41 | AGGAAACG | -0.105
42 | CACCCTTC | -0.0609
43 | TTACATAA | 0.193
44 | TCCGCGGA | 0.0157
45 | CAACAAAA | 0.211
46 | ACATTGAG | -0.0443
47 | GACTTAGA | -0.272
48 | CTCCGGAG | -0.0703
49 | ATGCTATC | 0.0484
50 | CTAAGTGA | -0.0834

Row | Sequence | PBM E-score
51 | CAGTTACG | -0.0984
52 | TCCAGAAA | 0.168
53 | CACTTGCA | 0.207
54 | CAAGGCGA | -0.212
55 | GGTGAGAA | -0.0216
56 | ACTCGATC | 0.0483
57 | ACTGTGAA | 0.27
58 | AGTTTACC | -0.175
59 | ACAGCATA | -0.0154
60 | GACGACAC | -0.039
61 | AACAGCCG | 0.0511
62 | CAGATGAA | 0.17
63 | ACCGGCAA | -0.104
64 | GCCGACGC | -0.0186
65 | AATGTCAG | 0.064
66 | CAAAGATC | -0.0433
67 | ACTCTCTA | -0.0608
68 | AGCCAGCG | -0.134
69 | CGGAGTGA | 0.0887
70 | ACTCTCCT | -0.143
71 | CCTAGGCC | -0.107
72 | CAAAGGGG | -0.0222
73 | AGATTCAG | -0.0532
74 | ATACAAGG | 0.0765
75 | CAAACAAG | 0.0644

Row | Sequence | PBM E-score
76 | GCATCTCA | -0.139
77 | ATGCATCA | 0.161
78 | AAACGCCC | -0.0205
79 | CACAACTC | 0.145
80 | GCAGCGCA | -0.146
81 | CTTTATCA | 0.0116
82 | ATCGTAAT | 0.161
83 | CCATTCAA | -0.104
84 | AGCTAATG | -0.111
85 | CGAGACAA | 0.0198
86 | ATACCTGC | -0.194
87 | CGCTACAC | 0.0919
88 | ACTTAACA | -0.0246
89 | AGCTCACG | -0.234
90 | ACAAAGCA | 0.29
91 | TATCGCAA | -0.0312
92 | CAGAAGCC | -0.0789
93 | GAGTGAAC | 0.0184
94 | CGCCGCGC | 0.177
95 | AGGGACGG | 0.0535
96 | GGAGACAC | -0.131
97 | CACTATAC | -0.014
98 | AATGTGTA | 0.0774
99 | ATTCTAGG | 0.0796
100 | AGGAACAG | -0.129

Row | Sequence | PBM E-score
101 | CTACAGAC | -0.113
102 | GCAGCGAA | -0.176
103 | CCTTGTTC | -0.0285
104 | CACCCAGA | -0.02
105 | CATTGGCG | -0.116
106 | ATAGTGAC | -0.0488
107 | ATCCTAAT | -0.0612
108 | ACCCAGCA | -0.0858
109 | ATCATCTA | -0.0267
110 | ATGGTTGC | -0.0896
111 | ATGACGTA | -0.145
112 | CAAGAACG | 0.0165
113 | ATGTTTTC | 0.172
114 | ATCAAATA | 0.199
115 | GATGTGCA | -0.0833
116 | AACACTGT | -0.0147
117 | AATGAGAG | -0.0696
118 | AACTTAAA | 0.186
119 | ATACTACA | 0.214
120 | CACCAGCG | -0.0138
121 | ATTGGCCC | -0.153
122 | CCGCGGAC | -0.092
123 | CAGTAAAG | 0.0406
124 | GGACGACA | 0.117
125 | CGCAGAAA | 0.0583

Row | Sequence | PBM E-score
126 | GGTAGTGA | -0.155
127 | AACGTTTC | 0.328
128 | CTCCTCTA | -0.177
129 | CACCAACG | -0.133
130 | AAAGCTAC | -0.167
131 | CTCTTACC | -0.0547
132 | TCGTCTCA | 0.134
133 | GCATTCGA | -0.0034
134 | CAGCAAAA | 0.132
135 | CCCCCGCG | -0.161
136 | CCGTAAAA | 0.107
137 | GGGTAAAA | 0.295
138 | AGCAGCCT | -0.0353
139 | AAATTTCG | 0.134
140 | AGTCAGTG | -0.0387
141 | AGGAAACC | -0.0955
142 | ACACGGGG | 0.088
143 | GACGGAAA | 0.203
144 | CTTGCCCA | -0.164
145 | GTTCGCAA | 0.135
146 | AATATCAG | 0.0475
147 | ACTATAGT | 0.115
148 | CTGCGGGC | -0.0275
149 | CTGCGGCC | -0.0296
150 | ACATAGGC | -0.0747

Row | Sequence | PBM E-score
151 | CCGATGTA | 0.0763
152 | CTTCTACC | -0.152
153 | ATAGCCAC | -0.153
154 | TATAGAAA | 0.092
155 | AAAGTACC | -0.0428
156 | AGACCGTC | -0.164
157 | CCTCCGCG | -0.0247
158 | GTCTCGCA | -0.218
159 | GAAGTACC | -0.167
160 | GGCCCCCC | -0.126
161 | GAAATAGA | 0.0446
162 | CAGTCGTA | -0.0318
163 | AATCGGGT | 0.0848
164 | ACAACACC | -0.0636
165 | CATTAAAG | 0.034
166 | CGCCGGCG | 0.275
167 | CGCTAGAC | -0.186
168 | CTTAAAAC | 0.352
169 | ATCCAAAA | 0.146
170 | GCTTCAGA | 0.124
171 | CCATAAGA | 0.063
172 | CTCATGAG | -0.0245
